# From PubChem BioAssay AID686979 (National Center for Advancing Translational Sciences (NCATS), 2013)
# Values joined by “and” are separate entries in the source; they are usually repeats but may differ in a detail not shown here. Equal values may be shown once. The whole screen tested about 420,000 compounds, of which about 50,000 (12%) were called active. This list was built around the results that the source calls inconclusive (neither active nor inactive); the mix of calls is not that of the screen. The call rests on the fitted dose curve; in most records, active means well fitted inhibition curve with a large enough effect; inconclusive means small, poorly fitted or top-dose-only effect; inactive means flat fitted curve, though single readings scatter. Where the call is inconclusive, the potency comes from a doubtful curve fit.
# Test: qHTS for Inhibitors of human tyrosyl-DNA phosphodiesterase 1 (TDP1): qHTS in cells in presence of CPT; further: nearly all actives have a fitted effect of over 55% in size
# Settings: chicken DT40 Tdp1-/-;hTDP1 cells + 20 nM CPT, ATP luminescence, 48 h; activity change, negative = growth inhibition: at 46.2 µM (top of the series) unless noted
# Summary of the method: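 Chicken DT40 Tdp1-/- cells complemented with human TDP1, 400 cells/well, exposed to compounds plus 20 nM camptothecin for at least 48 h at 37 C; viability read as ATP content by CellTiter-Glo luminescence.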
# On the % scale 0 is the no-effect control and ±100 the full control effect; potency means the concentration at half of the fitted maximal effect; tags describe the fitted curve by direction and shape.
SMILES,Potency,"activity change, negative = growth inhibition"
C=CCn1ccc(O)c(Cc2ccc(Cl)cc2)c1=O,inactive,
[O]=[Bi][O]C(=O)[O][Bi]=[O],"inconclusive: 16.8 µM [inhibitor, single point]",
O=Cc1cnc(N2CCOCC2)nc1,inactive,
Clc1cccc(N/N=C(\Cc2nc3ccccc3[nH]2)c2ccccc2)c1,"inconclusive: 29.1 µM [inhibitor, single point]",
COc1ccc(C(=O)Nc2cccc(S(=O)(=O)NC3=NCCCCC3)c2)cc1,inactive,
COc1ccc(C2=C(c3ccc(OC)c(OC)c3)CN3CCCCC3C2)cc1 (centres undefined),"inconclusive: 23.1 µM [inhibitor, partial curve, poor fit]",
O=[N+]([O-])c1ccc(/C=N\N2CCN(c3ccc(Cl)cc3)CC2)cc1,inactive,
S=C(N/N=C/c1ccccc1Cl)Nc1cccc(Cl)c1Cl,"inconclusive: 16.4 µM [inhibitor, single point]",
CSCC[C@H](NC(=O)c1cc2c([nH]c3ccccc32)c(-c2ccccc2)n1)C(=O)O,inactive,
CSc1ccccc1C(=O)C1CCCN(S(=O)(=O)c2c(C)noc2C)C1 (centres undefined),"inconclusive: 18.4 µM [inhibitor, single point]",
Cc1ccc(S(=O)(=O)N2CCN(c3nc(-c4ccnnc4)nc4ccccc34)CC2)cc1,"inconclusive: 20 µM [inhibitor, single point]",
CCOc1ccccc1NC(=O)C(CC)Sc1nc2ccncc2[nH]1 (centres undefined),"inconclusive: 25.9 µM [inhibitor, single point] and inconclusive: 18.4 µM [inhibitor, single point]",
O=C(Nc1ccc(F)cc1)c1ccccc1CC[N+](=O)[O-],inactive,
O=C(CNc1cccc(S(=O)(=O)N2CCCC2)c1)Nc1ccc(F)cc1F,"inconclusive: 20.6 µM [inhibitor, single point]",
COc1cccc(N(CC(=O)NCCSCc2ccc(Cl)cc2)S(C)(=O)=O)c1,"inconclusive: 16.4 µM [inhibitor, partial curve, poor fit]",
O=c1c2ccccc2nc(N/N=C/c2ccc(O)cc2)n1O,"inconclusive: 6.51 µM [inhibitor, partial curve, poor fit]",
COc1ccc(CCNC(=O)c2ccc(Cn3c(=O)c4ccccc4n(Cc4cccc(Cl)c4)c3=O)cc2)cc1OC,active: 20.6 µM,
CO/N=C\C(=N\Nc1ccc(OC)cc1)C(=O)c1ccccc1,"inconclusive: 16.4 µM [inhibitor, single point]",
COC1=C(N2CCOCC2)C(=O)c2ccccc2C1=O,"inconclusive: 16.4 µM [inhibitor, single point]",
COC(=O)C1CC(O)CN1C(=O)Nc1ccccc1 (centres undefined),inactive,
O=C(CSc1ccc(Cl)cc1)N1CCC(c2nc3ccccc3s2)CC1,active: 25.9 µM,
COc1cccc(NC(=O)CN(C)C(=O)c2cccc(S(=O)(=O)N3CCN(c4ccccc4)CC3)c2)c1,"inconclusive: 29.1 µM [inhibitor, single point]",
Cc1ccc(NC(=O)C2CCCN2S(=O)(=O)c2cccc3cccnc23)cc1F (centres undefined),"inconclusive: 16.4 µM [inhibitor, single point]",

SMILES,Potency,"activity change, negative = growth inhibition"
N#Cc1cccc(N=Cc2c(O)ccc3ccccc23)c1,"inconclusive: 11.6 µM [inhibitor, partial curve]",
Cc1nc2nc(C)c(NS(=O)(=O)c3ccc(C(C)(C)C)cc3)c(=O)n2[nH]1,inactive,
CCN(CC)S(=O)(=O)c1ccc(C)c(C(=O)Oc2cccc(-c3cnc4ccccc4n3)c2)c1,"inconclusive: 29.1 µM [inhibitor, single point]",
CCN1C(=O)[C@H]2[C@@H](c3ccc(OC)cc3)N3C(=O)CN(CC4CC4)C(=O)[C@@]3(C)[C@H]2C1=O,inactive,
O=S(=O)(c1ccccc1)N(CC(F)(F)F)c1ccc(C(O)(C(F)(F)F)C(F)(F)F)cc1,"inconclusive: 22.4 µM [inhibitor, single point] and inconclusive: 29.1 µM [inhibitor, single point]",
CCOc1ccc(CN2CCc3nc(Nc4ccc5c(c4)OCCO5)ncc3C2)cc1,"inconclusive: 11.6 µM [inhibitor, partial curve]",
CCN1C[C@@H]2[C@@H]3C(=O)N(Cc4ccccc4)C(=O)[C@@H]3[C@](Cc3ccccc3)(C1=O)N2C(=O)c1ccc(Cl)c(Cl)c1,"inconclusive: 18.4 µM [inhibitor, single point]",
COc1ccc(CCNC(=O)C2CCN(S(=O)(=O)N3CCC(C)CC3)CC2)cc1OC,inactive,
Cn1c(SCC(=O)c2ccccc2)nnc1-c1cccnc1,inactive,
CN(Cc1ccco1)C(=O)c1cccc(S(=O)(=O)N2CCN(Cc3ccccc3)CC2)c1,"inconclusive: 29.1 µM [inhibitor, single point]",
CC(NC(=O)C1CCC(C(C)(C)C)CC1)C(c1ccccc1)N1CCOCC1 (centres undefined),"inconclusive: 14.6 µM [inhibitor, single point]",
Cc1nn2c(=O)cc(COC(=O)c3ccccc3NC(=O)C(C)Oc3ccccc3)nc2s1 (centres undefined),"inconclusive: 23.1 µM [inhibitor, single point]",
COc1ccc(NC(=O)N(C)[C@H]2C[C@H]3c4[nH]c5ccc(-c6ccc(OC)cc6)cc5c4CCN3C[C@H]2[C@H](C)O)cc1,"inconclusive: 5.8 µM [inhibitor, full curve, poor fit]",
CC(C)c1ccc(NS(=O)(=O)c2ccc3nc(-c4ccccc4)[nH]c3c2)cc1,active: 14.6 µM,
CCOc1cc(-c2n[nH]c(=S)n2Cc2ccccc2)ccc1OC(F)F,inactive,
CCNC(=O)CN(c1ccc(Cl)cc1)S(=O)(=O)c1ccccc1,,inconclusive: -13.2% [inhibitor]
CSc1ccc(CN(C)C(=O)c2ccc(S(=O)(=O)Nc3c(C)n(C)n(-c4ccccc4)c3=O)cc2)cc1,"inconclusive: 13 µM [inhibitor, partial curve]",
COc1ccccc1C(=O)OCC(=O)c1cccc([N+](=O)[O-])c1,"inconclusive: 29.1 µM [inhibitor, single point]",
Cc1nc(CCNC(=O)COc2ccccc2)cs1,inactive,
Cn1c(=O)c2cc(C(=O)NCCCN3CCN(c4ccccc4F)CC3)sc2c2ccccc21,active: 3.66 µM,
N#CC1C(=O)NC(=O)C(C#N)C12CCCC(C(F)(F)F)C2 (centres undefined),inactive,
Cc1cc(C(=O)N/N=C/c2ccc3c(c2)OCO3)c(C)n1-c1ccc(F)cc1,"inconclusive: 29.1 µM [inhibitor, single point]",
CN(/N=C/c1ccccc1)C(=S)c1ccccc1,inactive,

SMILES,Potency,"activity change, negative = growth inhibition"
COc1ccc(NC(=O)CN2C(=O)C(c3ccccc3)=NC23CCCCCC3)cc1,"inconclusive: 23.1 µM [inhibitor, single point]",
Cc1ccc(-n2c(=O)c3ccc(C(=O)NCc4ccco4)cc3n(Cc3ccccc3C#N)c2=O)cc1,"inconclusive: 29.1 µM [inhibitor, single point]",
Cc1ccc(-n2nc3c(=O)n(CCCC(=O)NCCc4ccccc4Cl)nc(C)c3c2C)cc1,active: 8.2 µM,
CCN(CC)c1cc2c(cc1F)c(=O)c(S(=O)(=O)c1cccc(C)c1)cn2C,"inconclusive: 18.4 µM [inhibitor, single point]",
Cc1ccc(-c2cn(-c3cccc(Cl)c3)c(S(=O)(=O)CC(=O)Nc3ccccc3F)n2)cc1,"inconclusive: 29.1 µM [inhibitor, single point]",
Cc1ccc(NC(=O)Cn2c(=O)n(Cc3ccco3)c(=O)c3ccccc32)c(C)c1,"inconclusive: 8.2 µM [inhibitor, partial curve]",
NS(=O)(=O)c1ccc(NC(=O)Nc2ccc(S(N)(=O)=O)cc2)cc1,inactive,
O=C(C1CCN(S(=O)(=O)c2cccc3nsnc23)CC1)N1CCc2ccccc2C1,"inconclusive: 25.9 µM [inhibitor, single point]",
COc1ccc(C2/C=C\CN(C(=O)C3CC3)CC(=O)N2Cc2ccc(F)cc2)cc1 (centres undefined),inactive,
Cc1ccccc1C(=O)NC(CC(C)C)C(=O)Nc1ccc(S(N)(=O)=O)cc1 (centres undefined),inactive,
O=C(O)C1CC(=O)N(c2ccc3c(c2)OCCO3)C1 (centres undefined),active: 13 µM,
COC(=O)c1ccccc1NC(=O)C1CC(c2ccccc2O)=NO1 (centres undefined),inactive,
O=C(Nc1ccc(F)c(Cl)c1)C1Cc2c(-c3ccco3)ccnc2O1 (centres undefined),active: 23.1 µM,
CNC(=O)C1CCC(Cn2c(=O)c3sccc3n(CC(=O)NCc3cccc(OC)c3)c2=O)CC1 (centres undefined),inactive,
COC(=O)[C@]12CCCCC=C1N(Cc1ccco1)C(=O)[C@H](CC(=O)NCCc1ccccc1OC)C2,"inconclusive: 20.6 µM [inhibitor, partial curve]",
O=C(O)CC(C(=O)O)N1C(=O)/C(=C/C=C/c2ccco2)SC1=S (centres undefined),inactive,
COC(=O)c1ccc(OCCN2CCCCCC2)cc1,inactive,
CN(C)c1ncc2nc(CCc3ccccc3)c(=O)n(C[C@H]3CCCO3)c2n1,"inconclusive: 18.4 µM [inhibitor, single point]",
CCC(C)NS(=O)(=O)c1ccc(NC(=O)c2cccs2)cc1 (centres undefined),,inconclusive: -33.1% [inhibitor]
CN(C)c1cc(-c2cccc(C(F)(F)F)c2)oc(=O)c1Cl,inactive,
C=C1Cn2c(nnc2-c2ccc(Cl)cc2)S1,inactive,
COc1ccccc1CN1[C@@H](CC(C)=O)c2cc(C(F)(F)F)ccc2S1(=O)=O,"inconclusive: 29.1 µM [inhibitor, single point]",
Oc1ccc(C[C@H]2CNC(=S)N2CC2CCCN2C[C@H](Cc2ccc(O)cc2)N2C[C@H](Cc3ccccc3)N(CCc3ccccc3)C2=S)cc1 (some centres undefined),"inconclusive: 29.1 µM [inhibitor, single point]",
